Test results from the antibiotic and cytotoxicity screens of Wong et al. (2023).
The other results are listed elsewhere or left out.

Each compound was assayed on HSkMC (human skeletal muscle cells) (assay: cytotoxicity call (relative viability < 0.9)). Conditions: 10 µM.

| SMILES | cytotoxicity call |
| --- | --- |
| Cn1c(=O)c2c(ncn2CC(=O)N2CCN(C(=O)c3ccco3)CC2)n(C)c1=O | inactive |
| NCCCN | inactive |
| C[C@H](CO)N1C[C@H](C)[C@@H](CN(C)C(=O)Nc2cccc3ccccc23)OCCCC[C@H](C)Oc2ccc(NC(=O)C3CCCCC3)cc2C1=O | inactive |
| COCCOC(=O)N1C(=O)[C@@]2(c3cc(C#CCC(C(=O)OC)C(=O)OC)ccc31)[C@H](C(=O)N1CCc3cc(OC)c(OC)cc3C1)[C@H]1C(=O)O[C@H](c3ccccc3)[C@H](c3ccccc3)N1[C@@H]2c1ccc(O)cc1 | inactive |
| O=C(C[C@@H]1CC=CCC[C@H](Cc2ccc(F)cc2)C(=O)OC[C@@H](Cc2c[nH]c3ccccc23)NC1=O)N[C@@H](CO)Cc1ccccc1 | inactive |
| COc1ccc(NC(=O)Nc2ccc3c(c2)C(=O)N([C@H](C)CO)C[C@H](C)[C@@H](CN(C)S(=O)(=O)c2ccc(OC)cc2)OCCCC[C@H](C)O3)cc1 | inactive |
| C[C@H](CO)N1C[C@H](C)[C@@H](CN(C)C(=O)Nc2cccc3ccccc23)Oc2ccc(NS(=O)(=O)c3ccc(F)cc3)cc2C1=O | inactive |
| C[C@H](CO)N1C[C@H](C)[C@@H](CN(C)C(=O)Nc2ccc(C(F)(F)F)cc2)OCCCC[C@H](C)Oc2ccc(NC(=O)Nc3ccccc3)cc2C1=O | inactive |
| C[C@@H]1CCCCO[C@H](CN(C)S(=O)(=O)c2ccccc2)[C@H](C)CN([C@@H](C)CO)C(=O)c2cc(NC(=O)C3CCCCC3)ccc2O1 | inactive |
| CCCC(=O)Nc1nc2[nH]c(C)cc(=O)n2n1 | inactive |
| C[C@@H]1CN([C@H](C)CO)C(=O)c2cccc(NC(=O)C3CCOCC3)c2O[C@H]1CN(C)Cc1ccc(C(=O)O)cc1 | inactive |
| Cc1noc(C)c1NC(=O)N[C@@H]1CC[C@@H](CC(=O)N2CCN(C)CC2)O[C@H]1CO | inactive |
| COC(=O)[C@@H](N)Cc1ccc(-n2cc(CCC(=O)NO)nn2)cc1 | inactive |
| CCOC(=O)N1CCN(C(=O)C2CCN(S(=O)(=O)N(CC)CC)CC2)CC1 | inactive |
| COc1ccc(NC(=O)Nc2cccc3c2O[C@@H](CN(C)S(=O)(=O)c2cn(C)cn2)[C@@H](C)CN([C@H](C)CO)C3=O)cc1 | inactive |
| COc1ccc(CN(C)C[C@H]2OCCCC[C@H](C)Oc3ccc(NS(=O)(=O)c4ccc(Cl)cc4)cc3C(=O)N([C@@H](C)CO)C[C@@H]2C)cc1 | inactive |
| C[C@H]1CN([C@@H](C)CO)C(=O)c2cc(NS(=O)(=O)c3ccc(F)cc3)ccc2O[C@H]1CN(C)C(=O)Nc1ccc(C(F)(F)F)cc1 | inactive |
| O=C(N[C@H]1CC=CC[C@H](CC(=O)N(CCO)Cc2ccccc2)C(=O)N[C@@H](Cc2ccccc2)COC1=O)OCC1c2ccccc2-c2ccccc21 | active |
| C[C@@H]1CCCCO[C@@H](CN(C)CC2CC2)[C@H](C)CN([C@H](C)CO)C(=O)c2cc(NC(=O)Nc3ccccc3)ccc2O1 | inactive |
| C[C@H]1CN([C@@H](C)CO)C(=O)Cc2cc(NS(=O)(=O)c3cn(C)cn3)ccc2O[C@H]1CN(C)Cc1ccc(C(=O)O)cc1 | inactive |

| SMILES | cytotoxicity call |
| --- | --- |
| C[C@@H]1CN([C@@H](C)CO)C(=O)c2cc(NS(=O)(=O)c3cccs3)ccc2O[C@H]1CN(C)Cc1ccncc1 | inactive |
| C[C@H](CO)N1C[C@H](C)[C@@H](CN(C)C(=O)Nc2ccc(C(F)(F)F)cc2)Oc2c(NC(=O)Nc3cccc4ccccc34)cccc2C1=O | active |
| CC(C)CCCC(C)NC(C)C.Cl (stereo not given) | inactive |
| Cc1noc(C)c1NC(=O)N(C)C[C@@H]1OCCCC[C@H](C)Oc2ccc(NS(=O)(=O)c3cccs3)cc2C(=O)N([C@@H](C)CO)C[C@@H]1C | inactive |
| C[C@H](CO)N1C[C@H](C)[C@H](CN(C)C(=O)Cc2cccnc2)Oc2ncc(C#CC3(O)CCCC3)cc2C1=O | inactive |
| Cc1noc(C)c1NC(=O)Nc1ccc2c(c1)C(=O)N([C@@H](C)CO)C[C@@H](C)[C@@H](CN(C)Cc1ccc(C(F)(F)F)cc1)OCCCC[C@@H](C)O2 | inactive |
| COc1ccc(S(=O)(=O)Nc2ccc3c(c2)C(=O)N([C@H](C)CO)C[C@@H](C)[C@@H](CN(C)S(=O)(=O)c2ccccc2)O3)cc1 | inactive |
| Cc1noc(C)c1NC(=O)Nc1ccc2c(c1)CC(=O)N([C@H](C)CO)C[C@@H](C)[C@@H](CN(C)Cc1ccc(C(F)(F)F)cc1)O2 | inactive |
| Cn1c([C@H]2C=C(C(=O)N[C@H]3c4ccccc4C[C@H]3O)O[C@@H](OCCCCO)C2)cc(=O)n1-c1ccccc1 | inactive |
| O=C([O-])c1ccccc1O.[Na+] | inactive |
| C[C@@H]1CN([C@@H](C)CO)C(=O)c2cc(NC(=O)Nc3ccccc3)ccc2O[C@@H]1CN(C)C(=O)Nc1ccc(C(F)(F)F)cc1 | inactive |
| COc1ccc(S(=O)(=O)N(C)C[C@H]2Oc3c(NS(=O)(=O)c4c(C)noc4C)cccc3C(=O)N([C@@H](C)CO)C[C@@H]2C)cc1 | inactive |
| COc1ccc(CN(C)C[C@@H]2OCCCC[C@H](C)Oc3ccc(NC(=O)c4ccncc4)cc3C(=O)N([C@H](C)CO)C[C@@H]2C)cc1 | inactive |
| Cc1ccc(S(=O)(=O)N(C)C[C@@H]2Oc3ccc(NC(=O)CCN4CCOCC4)cc3CC(=O)N([C@@H](C)CO)C[C@@H]2C)cc1 | inactive |
| C=C1OC(=O)C2=C1O[C@H](/C=C/C)[C@@H](O)[C@@H]2O | inactive |
| C[C@H](CO)N1C[C@H](C)[C@@H](CN(C)C(=O)c2ccccc2)Oc2cc(C#CC3(O)CCCC3)ccc2S1(=O)=O | inactive |
| CN1CCN(C(=O)C[C@@H]2CC[C@@H](NC(=O)c3ccc4c(c3)OCO4)[C@H](CO)O2)CC1 | inactive |
| C[C@H]1CCCCO[C@H](CN(C)C(=O)Nc2ccc(C(F)(F)F)cc2)[C@@H](C)CN([C@@H](C)CO)C(=O)c2cc(NS(=O)(=O)c3ccc(F)cc3)ccc2O1 | active |
| CNC(=O)Cn1cc(N)cn1 | inactive |
| Cn1nc(Cn2ccnc2)c2c1CN(CCO)C2 | inactive |
